Experimental data from PMC4336329 (PLoS ONE, 2015).
Screen size: about 310,000 compounds; about 14,000 (4.5%) showed an effect of 50% or more. The effect is printed as a negative number. The list shows a part of the results.

Molecular target: human ether-à-go-go-related gene (hERG) potassium channel (human, UniProt Q12809)
Test: primary screen, population patch clamp on CHO cells stably expressing hERG
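Also: peak tail current of the secondary pulse compared with the same well before compound.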

human ether-à-go-go-related gene (hERG) potassium channel, sequence (Q12809 whole entry, looked up): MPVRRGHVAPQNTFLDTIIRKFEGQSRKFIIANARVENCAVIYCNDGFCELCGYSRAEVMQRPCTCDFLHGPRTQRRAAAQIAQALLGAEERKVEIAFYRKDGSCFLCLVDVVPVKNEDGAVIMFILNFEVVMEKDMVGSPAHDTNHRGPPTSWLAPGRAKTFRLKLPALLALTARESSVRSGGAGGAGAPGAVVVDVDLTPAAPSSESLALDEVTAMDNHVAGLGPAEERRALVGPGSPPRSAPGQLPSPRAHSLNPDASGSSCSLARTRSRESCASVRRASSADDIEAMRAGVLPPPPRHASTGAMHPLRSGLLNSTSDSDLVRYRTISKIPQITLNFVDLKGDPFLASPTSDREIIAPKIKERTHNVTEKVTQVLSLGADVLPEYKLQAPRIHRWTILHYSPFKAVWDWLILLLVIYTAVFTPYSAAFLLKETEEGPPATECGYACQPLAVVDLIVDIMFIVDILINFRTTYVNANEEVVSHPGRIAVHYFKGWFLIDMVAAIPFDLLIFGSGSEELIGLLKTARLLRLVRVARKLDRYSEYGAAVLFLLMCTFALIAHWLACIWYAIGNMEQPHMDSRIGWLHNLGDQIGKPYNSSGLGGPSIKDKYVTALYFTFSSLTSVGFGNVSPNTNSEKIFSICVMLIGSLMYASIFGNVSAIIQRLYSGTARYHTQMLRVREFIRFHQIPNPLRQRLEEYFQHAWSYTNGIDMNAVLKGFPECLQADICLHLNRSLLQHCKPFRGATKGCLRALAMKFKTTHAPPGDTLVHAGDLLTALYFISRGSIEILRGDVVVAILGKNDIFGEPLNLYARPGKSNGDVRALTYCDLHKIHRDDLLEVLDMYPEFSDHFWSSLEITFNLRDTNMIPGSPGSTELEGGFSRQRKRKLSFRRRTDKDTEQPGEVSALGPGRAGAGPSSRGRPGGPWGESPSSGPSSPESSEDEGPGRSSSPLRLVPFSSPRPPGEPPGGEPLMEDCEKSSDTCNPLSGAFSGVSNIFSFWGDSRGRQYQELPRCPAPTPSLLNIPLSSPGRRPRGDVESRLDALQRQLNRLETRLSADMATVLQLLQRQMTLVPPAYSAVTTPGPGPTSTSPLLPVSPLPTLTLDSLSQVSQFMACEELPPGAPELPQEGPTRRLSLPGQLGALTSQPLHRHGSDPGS

Structure (SMILES) | hERG current change (%, negative = inhibition) at 10uM [%]
Cc1ccsc1C(C(=O)NC1CCCCC1)N(C(=O)c1csnn1)C1CC1 (stereo not drawn) | -4.54
Cc1ccc(O)c(-c2cc(C(F)(F)C(F)F)nc(-c3ccccc3)n2)c1 | 8.38
CCCN(CCC)c1cc(Cl)nc(N)n1 | 7.49
C[C@@H](NC(=O)OC(C)(C)C)C(=O)NCC1CCC(C(=O)N[C@@H](Cc2ccccc2)C(=O)O)CC1 (stereo partly drawn) | 10.5
Cc1ccc(C(=O)NCc2cccnc2)cc1S(=O)(=O)N1CCCCCC1 | -65.7
O=C1/C(=C/c2ccncc2)N=C2CCCCCN12 | 0.168
Cc1ccc(C)c(SCC(=O)OCC(=O)c2ccco2)c1 | 8.67
O=S(=O)(c1ccccc1)N1CCC2(CC1)CO2 | -2.52
Cc1cc(C)c(NC(=O)COC(=O)c2cccc3c2C(=O)c2ccccc2C3=O)c(C)c1 | 11.4
CCCn1c(SC(C)C(=O)NCC2CCCO2)nc2sc(CC)cc2c1=O (stereo not drawn) | -34.1
CC1CCCCC1NCC(=O)NCc1ccc(F)cc1.O=C(O)C(=O)O (stereo not drawn) | -8.33
COc1ccc(C2=CC(c3ccc(Cl)cc3)n3cnnc3N2)cc1OC (stereo not drawn) | -52
COc1ccc(/C=N/Nc2cc(C)nc3ccc(Br)cc23)cc1 | -35.1
CC(=O)N1CCN(c2ccc(NC(=S)NC(=O)c3ccc(C)c([N+](=O)[O-])c3)cc2)CC1 | -34.5
COc1cccc2sc(N(C)c3ccccc3)nc12 | -3.98
O=C(CCC(=O)NNC(=O)Cc1ccccc1)NCc1ccccc1 | -12.9
O=C(NCCc1ccccc1)c1n[nH]c(=O)c2ccccc12 | 12.8
CCO[C@@H]1OC(C(=O)NC2CC2)=C[C@H](c2coc3ccccc3c2=O)[C@H]1CCCO | -9.07
O=C(NC(Cc1ccc(O)cc1)C(=O)O)/C(=C/c1ccccc1)NC(=O)c1ccccc1 (stereo not drawn) | 4.33
O=C1c2ccccc2-c2c1nc1c([n+]2[O-])CCCC1 | -2.6
COc1ccc2nc(NC(=O)CSc3nc(C)cc(C)n3)sc2c1 | -32.3
COc1ccc(C(=O)OCC(=O)Nc2c(C)cccc2C)cc1 | 17.4

Structure (SMILES) | hERG current change (%, negative = inhibition) at 10uM [%]
O=C(O)c1ccc(Cl)c(S(=O)(=O)NC(Cc2ccccc2)C(=O)O)c1 (stereo not drawn) | 17.6
CC(=O)NC(=O)COC(=O)/C=C/c1c(C)nn(Cc2c(Cl)cccc2Cl)c1Cl | -2.82
CC1(C)N=C(N)NC(Nc2cccc(Br)c2)=N1 | 4.04
COc1ccc2nc(N3CCCC(C(=O)NCCCN4C(C)CCCC4C)C3)sc2c1 (stereo not drawn) | -34.1
Cc1cc(NS(=O)(=O)c2ccc(C(C)C)cc2)no1 | -3.92
COc1ccc(-n2c(Cc3cc(=O)[nH]c(=O)[nH]3)nnc2SCC(=O)NC2CCCC2)cc1 | 21.7
COc1ccc(CNc2nn[nH]n2)cc1OC | 13.5
CC(C)(C)c1ccc(C(CC(=O)O)NS(=O)(=O)Cc2ccccc2)cc1 (stereo not drawn) | 18.6
CC(=O)c1ccc(S(=O)(=O)N2CCCc3ccccc32)cc1 | 7.65
COc1cc(-n2c(-c3ccccc3)n[nH]c2=S)c(OC)cc1Cl | 15.4
Cc1cc(C)c(S(=O)(=O)c2cccc(Br)c2C)c(Cl)n1 | 9.54
O=C(CSc1ccc2nnc(-c3ccncc3)n2n1)NCC1CCCO1 (stereo not drawn) | 11
CCc1cccc(NC(=O)c2ccc(Cn3c(=O)[nH]c4ccsc4c3=O)cc2)c1 | 14.2
O=C(NCCCN1CCOCC1)c1cccc(S(=O)(=O)N2CCc3ccccc3C2)c1 | -17
CN1OCC2Cn3c(nc4ccccc43)C21 (stereo not drawn) | 23.6
O=C(CSc1nc2ccc(Cl)cc2o1)NCc1ccc2c(c1)OCO2 | 10
CC(=O)Nc1ccc(S(=O)(=O)NCc2ccc(C(=O)NCc3ccc4c(c3)OCO4)cc2)cc1 | 4.58
CCNC(=S)Nc1c(C)n(C)n(-c2ccccc2)c1=O | -0.403
O=C(CSc1nnc(CNc2ccc(F)cc2)n1Cc1ccccc1)NCc1ccco1 | -0.992
COc1cc(CN2C(=S)NC(C)(C)CC2(C)O)cc(OC)c1 (stereo not drawn) | 7.64
COCCNC(=O)Cn1c(=O)n(CCCCCC(=O)NCc2ccc3c(c2)OCO3)c(=O)c2sccc21 | 1.89
Cc1cccc(OCCC(=O)OCc2csc(CC(=O)Nc3ccccc3C)n2)c1 | -0.874

Structure (SMILES) | hERG current change (%, negative = inhibition) at 10uM [%]
N#Cc1c(-c2ccccc2)cc(-c2ccccc2)nc1Br | 1.3
O=C(O)CCCC(=O)Nc1ccc(Br)cc1 | 22.4
Cc1ccc(C)c(SCC(=O)Nc2ccc(C)c(S(=O)(=O)N3CCOCC3)c2)c1 | -13.4
CCCCN(c1ccccc1)S(=O)(=O)c1cccc2cccnc12 | -19.8
Cc1cc(C)n2c(SC/C(O)=C(\C#N)c3nc4ccccc4[nH]3)nnc2n1 | -10.1
CC(C)Cc1n[nH]c(=O)c2c1nnn2Cc1ccccc1F | -11.9
O=C(O)c1ccc(COc2ccc3c(c2)CCC3)cc1 | 11.4
COc1ccccc1-n1c(CNC(=O)c2ccco2)nnc1SCC(=O)Nc1cc(C)ccc1C | -14.3
CCOC(=O)C1=C2SCCN2C(=O)C(C#N)C1(C)C (stereo not drawn) | 7.34
CC1CC(C)CN(CCCNC(=O)c2csc3c2CCCCC3)C1 (stereo not drawn) | -61.2
O=C(NNC(=O)c1ccccc1-n1cccc1)c1ccc(Cl)cc1 | 1.14
Cn1cc(CNCCCn2ncc3ccccc32)c(-c2ccccc2F)n1 | -36.3
COc1ccc(C(=O)c2cnc3ccccc3c2-c2ccccc2)cc1 | -9.47
CCN(C(=O)Cc1ccccc1OC)c1nnc(-c2ccncc2)s1 | -18
Cn1cccc1C(=O)OCC(=O)NCc1ccc2c(c1)OCO2 | -10.9
COCCNC(=O)CN(Cc1ccco1)C(=O)CCC(=O)Nc1nccs1 | -3.49
CCOc1ccc(NC(=O)CSc2nnc(C3CC3)n2C)cc1S(=O)(=O)N1CCCCC1 | -32.9
COCCn1c(=S)[nH]c2cc(C(=O)NCCc3ccccc3)ccc2c1=O | -2.2
CCCN(CCC)CCCNC(=O)c1cn(-c2ccc(OC)cc2)c(=O)c2ccccc12 | -48
COc1ccc(CCn2c(=N)c(C(=O)NCCN3CCOCC3)cc3c(=O)n4ccccc4nc32)cc1OC | -32.5
O=C(N=Nc1c(O)n(Cc2ccccc2)c2ccccc12)c1ccc(O)cc1 | -29.3
CCN(CC)N=Nc1ccc(S(N)(=O)=O)cc1 | 31

Structure (SMILES) | hERG current change (%, negative = inhibition) at 10uM [%]
COc1ccc2ccccc2c1CNc1nnnn1C | 17.9
Cc1ccc(S(=O)(=O)n2cnc3ccccc32)cc1[N+](=O)[O-] | 15.3
O=C(Cn1c(=O)oc2cc(S(=O)(=O)N3CCCC3)ccc21)N1CCN(c2ccccn2)CC1 | 5.14
O=c1cc(-c2ccc(Cl)cc2)nc(N2CCN(c3ccccc3)CC2)[nH]1 | 15
O=C(Nc1cccc(S(=O)(=O)NCc2ccco2)c1)c1cc(-c2ccccc2)nc2ccccc12 | 0.601
COc1cc(OC)nc(-n2ncc(Br)c(Br)c2=O)n1 | -6.15
N#Cc1c(/N=C/c2cc3ccccc3s2)sc2c1CCC2 | 18.7
COCCCNC(=O)c1nc2ccccc2c(=O)n1NC(=O)Nc1c(Cl)cccc1Cl | 14.2
O=C(Nc1ccc(Cl)cc1)OCc1cn(-c2ccccc2)nn1 | 10.8
CCn1ccnc1CN(C)C(=O)c1cc(COc2ccc(Cl)cc2OC)on1 | -12.3
O=C(N/N=C/c1ccc2c(c1)OCO2)c1sc2cc(Cl)ccc2c1Cl | -11.1
Cc1ccccc1N1CCN(C2CCCN(C(=O)CN3CCCC3=O)C2)CC1 (stereo not drawn) | 5.78
N#Cc1c(C(F)(F)F)cc(-c2ccccc2)nc1SCc1nc(N)nc(N2CCOCC2)n1 | -3.22
O=C1N/C(=N\N=C\c2cccs2)SC1Cc1cccc(Cl)c1 (stereo not drawn) | 12.6
CC1(C)CC(=O)CC(C)(C)N1OC(=O)c1ccncc1 | 3.53
Cc1cccc(-n2ncc3c(N(C)Cc4ccccc4)ncnc32)c1 | 8.54
CCCCOC(=O)c1ccc(NC(=O)c2c(O)[nH]c(=O)[nH]c2=O)cc1 | 1.86
COC(=O)c1c(CSc2cccc(C)c2)noc1C(=O)NCc1ccco1 | -22.3
COC(=O)C1=C(C(=O)OC)SC2(S1)C(C(=O)OC)=C(C(=O)OC)SC1=C2c2cccc(C)c2NC1(C)C | -51.6
COc1ccc(C)cc1NC(=O)C(OC(=O)c1ccc([N+](=O)[O-])o1)c1ccccc1 (stereo not drawn) | 8.23
Cc1ccc(-c2nn(-c3cc(Cl)ccc3[N+](=O)[O-])c(=O)c3ccccc23)cc1 | -22.1
